From paper PMC7382272 (Proceedings of the National Academy of Sciences of the …, 2020)

Biological target: T1, Rubicon RH domain (Rubicon homology domain, residues 699–949) (human, UniProt Q92622 699-949)
T1 sequence (looked up): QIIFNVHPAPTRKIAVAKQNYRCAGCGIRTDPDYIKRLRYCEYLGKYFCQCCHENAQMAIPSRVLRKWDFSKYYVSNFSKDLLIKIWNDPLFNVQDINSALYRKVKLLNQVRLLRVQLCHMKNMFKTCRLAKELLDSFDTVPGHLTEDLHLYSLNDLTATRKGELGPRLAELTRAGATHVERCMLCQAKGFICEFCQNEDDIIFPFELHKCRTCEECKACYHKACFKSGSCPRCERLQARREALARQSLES
Test: SEC

binding result: binds
B1: Rab7–GTP (GTP-locked Q67L mutant of human Rab7, […]) (domain or fragment)
chain: not shown
